Substitutions are numbered along the chain they refer to. Names may count otherwise.
B1: IscU I8K (natural protein, E. coli)
chain: MAYSEKVKDHYENPRNVGSFDNNDENVGSGMVGAPACGDVMKLQIKVNDEGIIEDARFKTYGCGSAIASSSLVTEWVKGKSLDEAQAIKNTDIAEELELPPVKIHCSILAEDAIKAAIADYKSKREAK
notes: IscU of E. coli (UniProt P0ACD4) with the single substitution I8K, made by site-directed mutagenesis of the pTrc99A-based IscU WT plasmid; source: E. coli BL21[DE3], purified (HiTrap Q HP, Superdex 75)
B2: IscU R15A (natural protein, E. coli)
chain: B1 chain with K8I, R15A
notes: IscU of E. coli (UniProt P0ACD4) with the single substitution R15A, made by site-directed mutagenesis of the pTrc99A-based IscU WT plasmid; source: E. coli BL21[DE3], purified (HiTrap Q HP, Superdex 75)
B3: IscU Y11A (natural protein, E. coli)
chain: B1 chain with K8I, Y11A
notes: IscU of E. coli (UniProt P0ACD4) with the single substitution Y11A, made by site-directed mutagenesis of the pTrc99A-based IscU WT plasmid; source: E. coli Rosetta[DE3], purified (HiTrap Q HP, Superdex 75)

The binders below were run against T1, HscA (E. coli, UniProt P0A6Z1 1-616) (assay: ITC; 1.5 mM IscU in the syringe, 25 injections into 0.15 mM HscA in the cell; 25 °C; 20 mM Tris-HCl, 150 mM NaCl, 0.5 mM EDTA, 5 mM TCEP, pH 8.0). Conditions: both partners purified.
T1 construct: HscA, Hsp70-like protein of E. coli Fe-S cluster biogenesis; source: E. coli BL21[DE3], purified (HisTrap, Ulp1 cleavage, reverse HisTrap, Superdex 75); not shown: His6, N-terminal, cleaved; SUMO, N-terminal, cleaved
T1 sequence (looked up): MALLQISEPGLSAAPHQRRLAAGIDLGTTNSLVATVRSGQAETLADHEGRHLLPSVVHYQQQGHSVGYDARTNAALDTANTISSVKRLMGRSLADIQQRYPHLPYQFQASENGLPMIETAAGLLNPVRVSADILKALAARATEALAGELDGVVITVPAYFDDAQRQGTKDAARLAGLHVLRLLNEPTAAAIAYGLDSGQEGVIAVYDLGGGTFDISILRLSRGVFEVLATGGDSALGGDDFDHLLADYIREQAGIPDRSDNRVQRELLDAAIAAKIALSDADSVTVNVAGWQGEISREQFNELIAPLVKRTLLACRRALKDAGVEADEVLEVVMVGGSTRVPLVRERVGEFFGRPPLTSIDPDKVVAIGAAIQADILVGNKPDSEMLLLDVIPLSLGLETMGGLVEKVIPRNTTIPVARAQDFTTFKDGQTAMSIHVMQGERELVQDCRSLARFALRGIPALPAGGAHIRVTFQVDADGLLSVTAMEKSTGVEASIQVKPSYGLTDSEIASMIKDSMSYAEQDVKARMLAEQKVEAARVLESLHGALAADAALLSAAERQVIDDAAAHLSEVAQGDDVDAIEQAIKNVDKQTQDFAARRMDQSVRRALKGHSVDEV

| Binder | binding result |
| --- | --- |
| B1 | binds |
| B2 | binds |
| B3 | binds |

— doi:10.1101/2025.01.09.632086, “The N-terminal order-disorder transition is a critical determinant for a metamorphosis of IscU” (bioRxiv, 2025)
